Source: US10624947B2, “Bactericidal peptides and uses thereof” (INDIANA UNIVERSITY RESEARCH AND TECHNOLOGY CORPORATION, priority 2016, dated 2020)
Part of at least one peptide drawing is inferred or uncertain, most often the ends. Some of these results come from one statement about several compounds together. Ends that are not written are not given here.

Tests used:
[1] = system: 19 Gram-negative strains; assay: MIC panel, number of strains inhibited; assay type: cell-based; details: for Concentration completely inhibiting all tested strains: all 19 Gram-negative strains; for Number of strains inhibited at 16 μg/ml: of 19 Gram-negative strains
[2] = system: E. coli Top10pHNSHP45; assay: Killing of colistin-resistant E. coli harboring mcr-1 plasmid; assay type: cell-based, Escherichia coli
[3] = system: Vibrio vulnificus; assay: Lethal sepsis model, surgical incision infection; details: cage of 5 mice; 10 μL of 5 μM added to incision 1 h after V. vulnificus
[4] = system: V. angustum; assay: Vibrios killing activity; assay type: cell-based; details: FIG. 8
[5] = system: various Gram-negative strains; assay: Rate of bacterial killing, CFU reduction; assay type: cell-based
[6] = system: V. fischeri; assay: Vibrios killing activity; assay type: cell-based; details: FIG. 9
[7] = system: E. coli ATCC 25922; assay: Bactericidal activity, viable colony formation; assay type: cell-based, Escherichia coli; details: 2 μM peptide for 30 min, versus mock
Protocol: (§1) The broth dilution assay tested for the inhibition of growth. To determine whether B22a has bactericidal activity, viable colonies that formed after bacteria were treated with 2 μM of B22a for 30 min were enumerated (Table 7). Peptide B22a reduced viable colony formation by E. coli by over 2 orders of magnitude. B22a reduced viable colony formation by P. aeruginosa by over 3 orders of magnitudes. B22a, like its predecessor B22, is a bactericidal for Gram-negative bacteria.

[8] = system: P. aeruginosa PAO1; assay: Bactericidal activity, viable colony formation; assay type: cell-based, Pseudomonas aeruginosa; details: 2 μM peptide for 30 min, versus mock
Protocol: as §1

Substance: GRFKRFRKKFKKLFKKLSPVIPLLHLG [BMAP-27, reference compound]
- Concentration completely inhibiting all tested strains [1]: ≤ 16 µg/mL
- Number of strains inhibited at 16 μg/ml [1]: 19/19
- MICs for Top10 versus Top10pHNSHP45 [2]: comparable MICs for Top10 and Top10pHNSHP45

Substance: FRKKLKKLFKKLSPVIPLLKLG [Peptide B22]
- Mice that exhibited no symptoms [3]: 4 mice
- Mice that had to be euthanized [3]: 1
- Viable colonies of Top10pHNSHP45 relative to BMAP27B ([2]; 2 μM (FIG. 13)): reduced the number of viable colonies relative to BMAP27B

Substance: GRAKRLRKKLKKLAKKLSPVIPLLHLG [BMAP-27C]
- Number of strains inhibited at 16 μg/ml [1]: 17/19

Substance: GRFKRLRKKLKKLFKKLSPVIPLLHLG [BMAP-27B]
- Concentration completely inhibiting all tested strains [1]: ≤ 16 µg/mL
- Number of strains inhibited at 16 μg/ml [1]: 19/19
- Fold reduction of V. angustum compared to mock controls [4]: tens of thousands of folds
- Bacterial killing ability compared to Kanamycin ([5]; FIG. 6A): more efficient bacterial killing ability
- Bacterial fold reduction (colony forming units) ([5]; within 5 minutes, 2 μM): hundreds to thousands
- Killing of E. coli Top10pHNSHP45 ([2]; 2 μM, 5 minute incubation (FIG. 12A)): killed
- Fold reduction of V. fischeri compared to mock controls [6]: tens of thousands of folds

Substance: FRKKLKKLFKKLSPVIPLLKLG-NH2 [Peptide B22a]
- Fold reduction, E. coli ATCC 25922 [7]: 615
- Fold reduction, P. aeruginosa PAO1 [8]: >6000

Substance: GRFKRLRKKFKKLFKKLSPVIPLLHLG [BMAP-27A]
- Concentration completely inhibiting all tested strains [1]: ≤ 16 µg/mL
- Number of strains inhibited at 16 μg/ml [1]: 19/19
